# About 2,200 (0.71%) of roughly 310,000 compounds showed an effect of 50% or more. Effects have a minus sign here. This is one part of the list.
# Target: human ether-à-go-go-related gene (hERG) potassium channel (human, UniProt Q12809)
# Experiment: primary screen, population patch clamp on CHO cells stably expressing hERG
# Chain of human ether-à-go-go-related gene (hERG) potassium channel (Q12809 whole entry, looked up): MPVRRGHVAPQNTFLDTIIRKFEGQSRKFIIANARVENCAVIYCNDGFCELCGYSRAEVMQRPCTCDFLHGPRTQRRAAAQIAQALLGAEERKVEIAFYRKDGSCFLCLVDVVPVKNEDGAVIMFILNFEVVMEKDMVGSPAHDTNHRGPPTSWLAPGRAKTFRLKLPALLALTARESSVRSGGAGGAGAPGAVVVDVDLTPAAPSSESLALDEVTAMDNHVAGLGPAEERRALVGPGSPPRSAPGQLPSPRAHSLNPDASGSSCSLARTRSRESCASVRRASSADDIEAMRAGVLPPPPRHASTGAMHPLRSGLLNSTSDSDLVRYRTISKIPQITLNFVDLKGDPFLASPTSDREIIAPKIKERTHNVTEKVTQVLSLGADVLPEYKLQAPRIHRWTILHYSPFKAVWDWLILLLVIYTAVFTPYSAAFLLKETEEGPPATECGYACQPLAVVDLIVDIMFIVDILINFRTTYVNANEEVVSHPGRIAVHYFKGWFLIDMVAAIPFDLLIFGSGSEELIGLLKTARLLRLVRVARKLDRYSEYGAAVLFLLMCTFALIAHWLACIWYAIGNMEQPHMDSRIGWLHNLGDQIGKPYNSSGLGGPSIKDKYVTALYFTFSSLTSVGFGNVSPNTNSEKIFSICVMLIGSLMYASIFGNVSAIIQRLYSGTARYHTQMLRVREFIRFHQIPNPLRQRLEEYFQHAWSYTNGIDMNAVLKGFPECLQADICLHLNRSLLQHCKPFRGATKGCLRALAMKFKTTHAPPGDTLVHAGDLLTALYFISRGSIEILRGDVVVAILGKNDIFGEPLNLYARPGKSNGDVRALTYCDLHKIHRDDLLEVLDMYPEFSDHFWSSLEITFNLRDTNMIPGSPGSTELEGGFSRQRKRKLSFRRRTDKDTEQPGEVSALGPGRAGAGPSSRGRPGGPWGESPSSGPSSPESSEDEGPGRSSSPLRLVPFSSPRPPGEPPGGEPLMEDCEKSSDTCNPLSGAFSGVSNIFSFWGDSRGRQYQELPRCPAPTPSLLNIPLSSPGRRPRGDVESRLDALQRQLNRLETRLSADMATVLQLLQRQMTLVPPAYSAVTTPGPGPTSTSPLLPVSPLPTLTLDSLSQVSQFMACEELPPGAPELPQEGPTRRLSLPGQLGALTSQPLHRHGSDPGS
row,Structure (SMILES),"hERG current change (%, negative = inhibition) at 1uM"
1,S=P(Nn1cnnc1)(c1ccc(Br)cc1)c1ccc(Br)cc1,14.4%
2,COc1ccc(S(=O)(=O)Cc2ccc(C(=O)N3CCc4ccccc4C3)o2)cc1,-16.9%
3,NC(=S)Cc1ccccc1Cl,8.98%
4,CN(C)C(=S)NC1(C)CCS(=O)(=O)C1 (stereo not shown),9.58%
5,Cc1ccc(S(=O)(=O)CC(=O)Nc2sc(C)c(C)c2C(N)=O)cc1,11.8%
6,Cc1ccc(NC(=O)c2cccnc2)cc1S(=O)(=O)N(C)C,3.05%
7,CN(C)S(=O)(=O)c1cccc(C(=O)NCC2CCCCC2)c1,2.31%
8,Cc1ccc2c(c1)NC(=O)C(CC(=O)NCc1ccc(F)cc1)O2 (stereo not shown),1.15%
9,CCOc1ccc(CN2CCNC(=O)C2CC(=O)NCCCC2CCCC2)cc1 (stereo not shown),-9.92%
10,Cc1cccc(C(=O)N(C)c2nnc(-c3ccncc3)s2)c1,6.08%
11,c1ccc2nc(-c3nc4ccccc4[nH]3)ccc2c1,-0.486%
12,CSCCC(NC(=O)c1ccccc1)C(=O)NCc1ccc(S(N)(=O)=O)cc1 (stereo not shown),9.58%
13,O=C(NNC(=O)C1CC1)c1ccccc1[N+](=O)[O-],13%
14,COc1cccc(-c2nc(-c3ccccc3)nc(N3CCN(C)CC3)c2C#N)c1,14.6%
15,CC(Cc1ccccc1)Nc1ncnc2c1ncn2C1OC(CO)C(O)C1O (stereo not shown),5.21%
16,COc1ccc2c(CC(=O)Nc3nnc(C4CC4)s3)coc2c1,10.1%
17,CCOC(=O)c1c(NC(=O)CN(CC)CC)sc2c1CCN(C(=O)OCC)C2,0.777%
18,C=CCNc1nc(-c2ccc([N+](=O)[O-])cc2)cs1,13%
19,O=c1c2ccccc2nc2n1CCS2(=O)=O,17.7%
20,Cc1nn(C)c(C(=O)NC(=S)Nc2ccccc2Br)c1Cl,10.3%
21,CC1(c2ccccc2Cl)NC(=O)N(CC(=O)Nc2ccccc2OC(F)F)C1=O (stereo not shown),5.12%
22,Cc1cc(-c2nnc(CCC(=O)N(C)C(C)c3cccs3)o2)no1 (stereo not shown),10.9%

row,Structure (SMILES),"hERG current change (%, negative = inhibition) at 1uM"
1,CSc1nnc(CNC(=O)c2ccccc2)n1-c1ccc(F)cc1,15.4%
2,O=C(CSc1nc(=O)n(CCCN2CCOCC2)c2c1CCC2)Nc1ccc([N+](=O)[O-])cc1,-7.53%
3,Cc1ccc(N2CCN(c3ccc(C)cc3)C(CC(=O)O)C2=O)cc1 (stereo not shown),8.51%
4,O=C(NC(NC(=S)Nc1ccc(Cl)cc1Cl)C(Cl)(Cl)Cl)c1cccc([N+](=O)[O-])c1 (stereo not shown),4.11%
5,Cc1cccn2c(=O)nc(SCC(=O)N3CCOCC3)nc12,11.4%
6,COCCCNC1=C(Cl)C(=O)c2ccccc2C1=O,16.1%
7,O=C(NCCOc1ccc(Cl)cc1)C(=O)NCC1CCCO1 (stereo not shown),22.4%
8,CCOC(=O)C1=C(N)OC2=C(C(=O)CCC2)C1c1sccc1C (stereo not shown),6.17%
9,CCOC(=O)N1CCN(C(=O)c2ccccc2NC(=O)COc2ccccc2)CC1,8%
10,CC(C)(C)c1ccc(S(=O)(=O)Nc2noc3ccccc23)cc1,11.8%
11,CCOC(=O)c1c(-c2ccco2)csc1N,5.11%
12,CN(Cc1ccccc1)S(=O)(=O)c1ccc(Cl)c(C(=O)NCc2ccncc2)c1,0.805%
13,O=C(Nc1ccnn1C1CCN(C(=O)c2cccc(Cl)c2)CC1)C1CC1,8.23%
14,O=C(CN(c1ccccc1)S(=O)(=O)c1ccc(Cl)cc1)Nc1ccccc1C(=O)N1CCCC1,-14%
15,CN(C)CCCOC(=O)c1sc2ccccc2c1Cl.Cl,-17.5%
16,CN(CC(=O)Nc1ccccc1F)CC(=O)Nc1ccccc1Br,13.1%
17,COc1ccc(CNC(=O)CCCCCNC(=O)N2CCn3c2nc2ccccc23)cc1,2.86%
18,CN1C2CCC1CC(OC(=O)CCN1CCCC1)C2 (stereo not shown),4.97%
19,COc1ccc2nc(C)cc(SCC(=O)O)c2c1,0.584%
20,Cc1ccc(Cl)cc1N1CCN(C(=O)C2CCN(S(=O)(=O)c3cnc[nH]3)CC2)CC1,12.5%
21,CC(C)COC(=O)c1ccccc1N1C(=O)C2C3CCC(C3)C2C1=O (stereo not shown),6.9%
22,Cc1ccc(NC(=O)c2ccc(Cl)c(S(=O)(=O)N3CCCCCC3)c2)nc1,-7.77%

row,Structure (SMILES),"hERG current change (%, negative = inhibition) at 1uM"
1,CC(=O)c1ccc(N2C(=NC(=O)C3CCCO3)SC3CS(=O)(=O)CC32)cc1 (stereo not shown),-4.64%
2,Cc1ccc(C)c(C(=O)C(C)Sc2nc3nn(-c4ccccc4)c(=O)c-3c3n2CCCCC3)c1 (stereo not shown),8.88%
3,Oc1ccc(C[C@H]2CNC(=S)N2CCc2cc(C(F)(F)F)cc(C(F)(F)F)c2)cc1,14.8%
4,COc1ccc(C(=O)NCCc2ccccc2)cc1OC,11.5%
5,COc1cccc(-c2ccc(NC(=O)C3CCCN(Cc4ccco4)C3)cc2)c1 (stereo not shown),7.36%
6,Cc1ccc(S(=O)(=O)N2CCCC2C(=O)n2nc(C)cc2C)cc1 (stereo not shown),3.46%
7,COC(=O)c1cc(NCc2ccccc2F)ccc1N1CCOCC1,6.11%
8,CC(C)c1ccc(S(=O)(=O)N2CCN(C(=O)C3CCN(C(=O)c4ccc(F)cc4)CC3)CC2)cc1,0.715%
9,CCOC(=O)c1c(O)c2cccc3c2n(c1=O)CC3,15.9%
10,CO.COc1ccc(C(=O)Nc2ccc(/C(C)=N/NC(=O)c3ccccc3O)cc2)cc1OC,15.3%
11,CSCCC(NS(=O)(=O)c1ccccc1F)C(=O)N1CCCCCCC1 (stereo not shown),7.12%
12,COc1ccc(NC(=O)c2ccccc2F)cc1Cl,10.4%
13,CC1(C)C=Cc2c(ccc3c2OC[C@H](c2ccc(O)cc2O)C3)O1,11.6%
14,Cc1ccc(C(=O)CSc2nc(C(C)C)nc3ccccc23)cc1,14.2%
15,O=C(N=C1N=C2C=CC=CN2Cc2ccccc21)c1ccc(S(=O)(=O)N2CCCC2)cc1,10.7%
16,O=C(COC(=O)CNC(=O)c1ccccc1F)Nc1ncc(Cl)cc1Cl,10.9%
17,N/C(=N\c1nc2ccccc2o1)NC(=O)c1cccc(Cl)c1,6.33%
18,CCC1Sc2ccc(S(=O)(=O)Nc3cc(OC)cc(OC)c3)cc2NC1=O (stereo not shown),6.13%
19,COC(=O)c1scc(S(=O)(=O)C(C)(C)C)c1N,15.8%
20,COc1ccc(-c2csc(COC(=O)C(C)(C)C)n2)cc1,12.1%
21,O=C(Nc1ccc(S(=O)(=O)Nc2nccs2)cc1)c1ccc(F)c(S(=O)(=O)N2CCOCC2)c1,-10.7%
22,Cc1csc(NC(=S)NC(=O)c2ccccc2)n1,13%

row,Structure (SMILES),"hERG current change (%, negative = inhibition) at 1uM"
1,Cc1nc(NC(=O)COC(=O)/C=C/c2ccco2)c(Cl)cc1Cl,12.1%
2,CS(=O)(=O)CCC(C(=O)OCc1ccc(Br)cc1)N1C(=O)c2ccccc2C1=O (stereo not shown),10%
3,CCn1c(SCC(=O)Nc2ccccc2OC)nnc1-c1cnccn1,13.1%
4,COc1cc(OC)c(OC)cc1CNC1CCCCCC1,1.12%
5,CC(C)(C)NS(=O)(=O)c1ccc(CCC(=O)N2CCCCC2)cc1,13.6%
6,CCOc1cccc(NC(=O)C2CC(=O)N(C)C(=Nc3ccccc3)S2)c1 (stereo not shown),9.15%
7,COc1cccc(N2CC34C=CC(O3)C(C(=O)O)C4C2=O)c1 (stereo not shown),13.7%
8,CCC/C(=C1/c2ccccc2C(=O)N1c1ccccc1)c1ccc2c(c1)OCCO2,14.8%
9,COc1cccc(/C=N/NC(=O)c2ccc(N3CCCC3=O)cc2)c1,-1.29%
10,CC(SC1=NCCN1S(=O)(=O)c1ccc(F)cc1)c1ccccc1 (stereo not shown),11.9%
11,O=C(NCC(=O)N(c1ccccc1)C(C(=O)NC1CCCC1)c1ccncc1)c1cccs1 (stereo not shown),13.1%
12,CC1(C)O[C@@H]2[C@H](O1)[C@@H](COS(=O)(=O)[O-])O[C@H]2n1cnc2c(N)ncnc21.[K+],14.6%
13,CCCCn1c(N)c(N(CC(C)C)C(=O)CC(NC(=O)c2ccccc2)c2ccccc2)c(=O)[nH]c1=O (stereo not shown),10.9%
14,COc1nc2ccccc2c(=O)n1-c1ccc(C)cc1,7.4%
15,Cc1ccccc1N1CCN(C2CCCN(C(=O)CCc3c(C)noc3C)C2)CC1 (stereo not shown),-29.2%
16,O=C(c1cccs1)N1CCN(S(=O)(=O)N2CCOCC2)CC1,-1.4%
17,COc1ccc(N2CCN(C(=O)c3cn(C4CCCC4)c(=O)c4c3c3ccccc3n4C)CC2)cc1,5.81%
18,COc1cccc(/C=C/C(=O)N2CCN(S(=O)(=O)c3ccccc3)CC2)c1OC,-0.35%
19,O=C(N/N=C1/CCS(=O)(=O)c2ccc(F)cc21)c1cccnc1,13.7%
20,CN1CCN(c2cc3c(c4c2[nH]c2ccccc24)C(=O)CC(C)(C)C3)CC1.Cl,9.45%
21,COc1ccc(N2CCN(CC(=O)N3N=CCC3c3ccccc3)CC2)cc1 (stereo not shown),2.09%
22,CN(C(=O)c1c(Cl)cnn1C)C12CC3CC(CC(C3)C1)C2,7.8%

# From article PMC4336329 (PLoS ONE, 2015)
